Source: article PMC12136788
Substitutions are numbered along the chain they refer to. This is one part of the list.

T1: UNK ZnF1-3 (human, UniProt Q9C0B0 31-174)
T1 sequence: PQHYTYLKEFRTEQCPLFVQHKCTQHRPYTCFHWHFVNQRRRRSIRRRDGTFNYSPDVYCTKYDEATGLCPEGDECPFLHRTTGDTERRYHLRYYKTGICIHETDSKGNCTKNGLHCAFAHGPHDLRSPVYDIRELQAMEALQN

B1: chr3:145257603:145257604:+_ENSMUSG00000074182_ENSMUST00000098534|mus_mus|FALSE|FALSE (ssRNA)
RNA: GGGAGUUCUACAGUCCGACGAUCAUCGAUGUAAGGCUUUAGAAUUUCAUUAAUAGUUUUAUCAUCUGGUACUCUUUUUUCUAUGUACUCUGCUUGACUCUGAGGAAACUGGAGCUUGACAUGCCAACAAAACUGCUGCUUCCUCAACAGAGGAUUGAGCAUCA
B2: chr11:4127340:4127341:+_ENSG00000167325_ENST00000300738|hu_mus|FALSE|FALSE (ssRNA)
RNA: GGGAGUUCUACAGUCCGACGAUCGGCAUAGUCAGGGUGCUUCGUGGUCAAGGUCGCGGCUGUCUCAGCAGCCAGGGUGUCCAGUUCCACUGUGGUGACCCCACUAUAUAGGCCUUGGAUUACUUUCAUGGUGAUCUGAGCAGGCAACAGAGGAUUGAGCAUCA
B3: chrX:53230792:53230793:-_ENSG00000126012_ENST00000404049|hu_hu|FALSE|FALSE (ssRNA)
RNA: GGGAGUUCUACAGUCCGACGAUCCAGCAGGGCCUUUCGUAGACGCCGCUCUUCUUGCACCAUGAUGAACAUCUCCUUAUGCACAGCUGCCGCCAGGUUCAGGUCUAGCUUCUCUGGGCAGGCAGCCAUCUUGCAGAUAAGCUCCAACAGAGGAUUGAGCAUCA
B4: chr19:34925787:34925788:+_ENSG00000126261_ENST00000246548|perfect_dup|FALSE|FALSE (ssRNA)
RNA: GGGAGUUCUACAGUCCGACGAUCGAGAUACCCAGCAGUCCCGCUCUCAAUGAGAGGCACAUCAGCGGCCAGACACAUCCUAUUCACGUGGUUUCGUGCAGCUCUGUUAUCUAAUGCAUUCAUGACCAAUAUAAACUGUCGAAACAACAGAGGAUUGAGCAUCA
B5: chr13:36049296:36049297:-_ENSG00000180660_ENST00000379919|hu_mus|FALSE|FALSE (ssRNA)
RNA: GGGAGUUCUACAGUCCGACGAUCCCACGUUUGUUUAGCAGCGUUUUCCAAGGCCGAGUGGGGUUUGCCUUGAAACAGAUCUAAGUUCGGUAAGAAGUAAUGGGGACACCGCCGGCACUGCAGGCAUGAGAUGAGCUGCAGAAGCAACAGAGGAUUGAGCAUCA
B6: chr2:181922443:181922444:+_ENSG00000170035_ENST00000410062|hu_hu|FALSE|FALSE (ssRNA)
RNA: GGGAGUUCUACAGUCCGACGAUCCACACCACCUUCAUAUACAGAACCCGGUGGACCAAGUAUAGUUGAUCUCCAUUCAUAAAUGUUAUCUCCUUUAGGCCCAGCACUGCAAUUAGGAGGAGGAUCAAGGGUUAUUUCAGCUAGCAACAGAGGAUUGAGCAUCA
B7: chr20:33096620:33096621:+_ENSG00000078747_ENST00000374864|hu_hu|FALSE|FALSE (ssRNA)
RNA: GGGAGUUCUACAGUCCGACGAUCGUCUUAAACUCCUUAACAAUAAUUAAAUAUAACUGAAGUUGUUGGAUUAUGAUAAAACUAUAAAGCAUCAAUUAUAUAGCGGAACAUAUAAAAAUCACCAGAGACAUCUUUAGAUGAAUUCAACAGAGGAUUGAGCAUCA
B8: chr3:10015032:10015033:+_ENSMUSG00000027533_ENSMUST00000029046|mus_mus|mus_mus_mus_hu_True|48_48 (ssRNA)
RNA: GGGAGUUCUACAGUCCGACGAUCGUUUUUACCAUCACAAGUGAUGAUACAAUCUGGCUUGGCCAUUGCGCCCAUUUUUCGCAAAGCCAGUCCUACUCCUAGCUCCUUCAUGUAUUCAUCAAAGCCUUUGCUGUCCACCAGGCGCAACAGAGGAUUGAGCAUCA
B9: chr5:17772112:17772113:-_ENSMUSG00000057614_ENSMUST00000074694|mus_mus|motif|central (ssRNA)
RNA: GGGAGUUCUACAGUCCGACGAUCAAGUCUAAGAUCCUGUGUCCUGAAAAAAUCUGGAGAUUUGGUUUCUUAAAUAAAUCGGAACGGGAGUCAGAACAUCAUGCACUCUGUAAAUAAAUUCUAAUGCACUCAAUGCUUAAAUAACAACAGAGGAUUGAGCAUCA
B10: 65476360_65476480_3758_3pUTR_ENSG00000153914_ENST00000334121|human|control|control (ssRNA)
RNA: GGGAGUUCUACAGUCCGACGAUCUCUUCCAAAAUUUUAAUGUACACAGUGACAAAAAGGAAAAACAAACAAAAAAAACAGUAAUUCUGAACACAUGAAGAGUGAUUAAGCAGCUUCAUAAUCAAAUCAGGCUUCAUUACUUGCCAACAGAGGAUUGAGCAUCA
B11: chr17:17165348:17165349:-_ENSG00000141030_ENST00000268717|hu_mus|FALSE|FALSE (ssRNA)
RNA: GGGAGUUCUACAGUCCGACGAUCUAUUUGAGAGGUGUAUUUAGGCAGCUGUUGUACUUUGCCAAGUAAUAUCAAAGACACUAGAAUAUACUUUUUAUAUGAUUCCAACAUGAUAUGGCUGACGGCCAUGGCAGGAGUAGUUAUCAACAGAGGAUUGAGCAUCA
B12: chr7:86439405:86439406:+_ENSMUSG00000039202_ENSMUST00000037315|mus_mus|FALSE|FALSE (ssRNA)
RNA: GGGAGUUCUACAGUCCGACGAUCUUCCUUGAAGGGGUGUCCAGGUGGGCCAAUCAGAUCUGAUCUUAUAUUCAAAUUAACCUAAAAGCUUCUCUCAUUGACUCCAGCAGUCCAACCCGCCCGGAGUCCGGUUCCCGCAGCUCCCAACAGAGGAUUGAGCAUCA
B13: 149508160_149508280_6036_3pUTR_ENSMUSG00000003452_ENSMUST00000086829|mouse|control|control (ssRNA)
RNA: GGGAGUUCUACAGUCCGACGAUCUUCAUGCUCCUAAGCACUUAGGCCAAAAGCAAUUUAUUGCUUCUUUUUAUUUUACUAUUAUGCUUUAAUGAAAAUCCUUAGUGAAAAAGCAUUUCUGCAUACUAAUUCAUCUAUUCAGCUCAACAGAGGAUUGAGCAUCA
B14: 107906761_107906881_4198_3pUTR_ENSMUSG00000034636_ENSMUST00000043616|mouse|control|control (ssRNA)
RNA: GGGAGUUCUACAGUCCGACGAUCGAAUCUGAGCAACCAUCUUGGGUAAAAAUGUAUCGUAUAGCUCUUAAAAUUCCUUGAACCAAUGAAGUAAGAAAUAAACCAUAGUUUUAUAUGGCUUUUUGAUAAUUCUAUGUGUCUGUUCAACAGAGGAUUGAGCAUCA
B15: 97770756_97780716_632_CDS_ENSG00000164715_ENST00000297293|human|control|control (ssRNA)
RNA: GGGAGUUCUACAGUCCGACGAUCGGCAACUUGAGACUUCAAUCCCUCUACAGAAGGCUGGAAUUGCGAGGGAGCUGGGAGUGAAAUAUUUGGUACUGAAAGUGUGAAGACCUCUGCUGGGGACUGAACAGAGGGAGUGUCUUCCAACAGAGGAUUGAGCAUCA
B16: chr13:95058138:95058139:+_ENSG00000183098_ENST00000377047|hu_mus|FALSE|FALSE (ssRNA)
RNA: GGGAGUUCUACAGUCCGACGAUCAUUAAACCUUUAACAUUAAAUCAGUCUACAAAACCAUACAACGGGCAGUGACAAUGACUAGGAAGGGCACGUUAAAAACAUUUUGUCCAUGUCUGUGUAAGAUGACCAACGAUGUGGCUUCAACAGAGGAUUGAGCAUCA
B17: 165947226_165947346_5844_CDS_ENSG00000153253_ENST00000283254|human|control|control (ssRNA)
RNA: GGGAGUUCUACAGUCCGACGAUCUUUAGAGAACUCUAUAAACUGGGUCGCAUCGGGAUCAAACUUUUCCCAAACCUCAUAGAACAUCUCAAAGUCAUCCUCACUCAGGGGCUCUGCACUUUCUUCAGUAGCAACACUGAAGUUCAACAGAGGAUUGAGCAUCA
B18: 148773136_148777573_1560_3pUTR_ENSG00000071794_ENST00000310053|human|control|control (ssRNA)
RNA: GGGAGUUCUACAGUCCGACGAUCUUGGUCUCUCCUCAACAUCAGUUUUCUUUGACCCCUCCACUGCACAAGCUCCCUUUUUCAACAUUUUCUUUUUUGUUGUAGGAACAGAUGAAGUUAAUGCACAUGCAAAUGCCACAUCUUCAACAGAGGAUUGAGCAUCA
B19: chr3:148802587:148802588:-_ENSG00000071794_ENST00000310053|hu_mus|hu_hu_hu_mus_False|48_98 (ssRNA)
RNA: GGGAGUUCUACAGUCCGACGAUCUCCAACAACUUGUCCUCUCAAACUUCCAAAUAAAACCAAAUCUUGCUCUUCAUCACUCGUUAGAAAGUCAUCUGGAGGAAUAAUGUCUUGGAAUUCAAAAUGUGGCAAGAAAGUUGAGUACAACAGAGGAUUGAGCAUCA
B20: chr19:5156467:5156468:-_ENSMUSG00000024855_ENSMUST00000025786|mus_hu|FALSE|FALSE (ssRNA)
RNA: GGGAGUUCUACAGUCCGACGAUCCUUUAUUUCUGCCACAGGCACAGAGACAUCCUUCACGUUGCUGUGUAGGCCAAGCACCAGUGCGCCUUCAUUAGGAUGCUGCAUCACCUCUGCCAUGUUGAUGAGUCCCACGGCCAAGGUCAACAGAGGAUUGAGCAUCA
B21: chr2:42509997:42509998:+_ENSG00000143924_ENST00000318522|hu_mus|hu_hu_hu_mus_True|38_48 (ssRNA)
RNA: GGGAGUUCUACAGUCCGACGAUCUCGCUGAGUCCUCUCCUCAUAAUUAAACAGGACUACCACUGAGGCGAUAAAAUAAACUAUCUCCCCGGUCGGAAGAAGGUAAACAUUCGCUCUACAGUCCUUUCCUCGAUAACCGUAUACCAACAGAGGAUUGAGCAUCA
B22: chr3:10015032:10015033:+_ENSMUSG00000027533_ENSMUST00000029046|mus_mus|mus_mus_mus_hu_True|1_1 (ssRNA)
RNA: B8 RNA with C87U, G89U, U93C, C137U

The binders below were run against T1, UNK ZnF1-3 (assay: nsRBNS (natural sequence RNA bind-n-seq); RBNS binding buffer (assumed for nsRBNS): 25 mM Tris pH 7.5, 150 mM KCl, 3 mM MgCl2, 0.01% Triton X-100, 500 ug/ml BSA, 20 U/ml SUPERase-In, 4 C; UNK is unkempt and MSI1 is Musashi-1; names of the RNAs are library labels; protein concentration not given here; high values mean tight binding).

Row | Binder | binding signal
1 | B1 | 0.958 enrichment R
2 | B2 | 0.97 enrichment R
3 | B3 | 0.643 enrichment R
4 | B4 | 0.474 enrichment R
5 | B5 | 1.23 enrichment R
6 | B6 | 1.46 enrichment R
7 | B7 | 1.42 enrichment R
8 | B8 | 0.61 enrichment R
9 | B9 | 1.37 enrichment R
10 | B10 | 1.94 enrichment R
11 | B11 | 0.98 enrichment R
12 | B12 | 0.922 enrichment R
13 | B13 | 0.656 enrichment R
14 | B14 | 0.648 enrichment R
15 | B15 | 1.96 enrichment R
16 | B16 | 1.72 enrichment R
17 | B17 | 0.705 enrichment R
18 | B18 | 0.791 enrichment R
19 | B19 | 1.25 enrichment R
20 | B20 | 0.837 enrichment R
21 | B21 | 1.05 enrichment R
22 | B22 | 0.696 enrichment R
